# Assay results published in the supplement of paper PMC8728848.
# This is one part of the list.
# B1: PNGase F (Flavobacterium meningosepticum) (protein)
# chain: GIPAPADNTVNIKTFDKVKNAFGDGLSQSAEGTFTFPADVTAVKTIKMFIKNECPNKTCDEWDRYANVYVKNKTTGEWYEIGRFITPYWVGTEKLPRGLEIDVTDFKSLLSGNTELKIYTETWLAKGREYSVDFDIVYGTPDYKYSAVVPVVQYNKSSIDGVPYGKAHTLALKKNIQLPTNTEKAYLRTTISGWGHAKPYDAGSRGCAEWCFRTHTIAINNSNTFQHQLGALGCSANPINNQSPGNWTPDRAGWCPGMAVPTRIDVLNNSLIGSTFSYEYKFQNWTNNGTNGDAFYAISSFVIAKSNTPISAPVVTNLDPHHHHHH
# Columns and labels:
# Assay in all cases: glycan array binding signal (z-score within array); higher = stronger binding
# Conditions in all cases: glycan notation: IUPAC condensed, linker removed
# [1] = biological target: GalNAc(b1-4)GlcNAc(b1-2)Man
# Outline: (§1)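 The binding signal is a Z-score computed within each array and averaged over linkers. Arrays of the same protein sequence at different concentrations or buffers were also averaged together. Data originate from 3228 arrays in the Consortium for Functional Glycomics database, kept only where the protein sequence was available.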
# [2] = biological target: GalNAc(b1-4)GlcNAc(b1-2)Man(a1-3)[GalNAc(b1-4)GlcNAc(b1-2)Man(a1-6)]Man(b1-4)GlcNAc(b1-4)GlcNAc
# Outline: as §1
# [3] = biological target: GalNAc(b1-4)GlcNAc(b1-3)GalNAc(b1-4)GlcNAc
# Outline: as §1
# GalNAc(b1-4)GlcNAc6S = biological target: GalNAc(b1-4)GlcNAc6S
# Outline: as §1
# GalNAc(b1-6)GalNAc = biological target: GalNAc(b1-6)GalNAc
# Outline: as §1
# GalNAc3S(b1-4)GlcNAc = biological target: GalNAc3S(b1-4)GlcNAc
# Outline: as §1
# GalNAc3S(b1-4)GlcNAc3S = biological target: GalNAc3S(b1-4)GlcNAc3S
# Outline: as §1
# [4] = biological target: GalNAc3S(b1-4)[Fuc(a1-3)]GlcNAc
# Outline: as §1
# GalNAc4S6S(b1-4)GlcNAc = biological target: GalNAc4S6S(b1-4)GlcNAc
# Outline: as §1
# GalNAc6S(b1-4)GlcNAc = biological target: GalNAc6S(b1-4)GlcNAc
# Outline: as §1
# Glc(a1-4)Glc = biological target: Glc(a1-4)Glc
# Outline: as §1
# [5] = biological target: Glc(a1-4)Glc(a1-4)Glc(a1-4)Glc
# Outline: as §1
# Glc(a1-6)Glc(a1-6)Glc = biological target: Glc(a1-6)Glc(a1-6)Glc
# Outline: as §1
# [6] = biological target: Glc(a1-6)Glc(a1-6)Glc(a1-6)Glc
# Outline: as §1
# Glc(b1-4)Glc = biological target: Glc(b1-4)Glc
# Outline: as §1
# Glc(b1-6)Glc = biological target: Glc(b1-6)Glc
# Outline: as §1
# GlcA(b1-3)Gal = biological target: GlcA(b1-3)Gal
# Outline: as §1
# GlcA(b1-3)GlcNAc = biological target: GlcA(b1-3)GlcNAc
# Outline: as §1
# GlcA(b1-6)Gal = biological target: GlcA(b1-6)Gal
# Outline: as §1
# [7] = biological target: GlcA3S(b1-3)Gal(b1-4)GlcNAc(b1-2)Man
# Outline: as §1
# [8] = biological target: GlcA3S(b1-3)Gal(b1-4)GlcNAc(b1-3)Gal(b1-4)Glc
# Outline: as §1
# [9] = biological target: GlcNAc(a1-3)Gal(b1-4)GlcNAc
# Outline: as §1
# [10] = biological target: GlcNAc(a1-4)Gal(b1-3)GlcNAc
# Outline: as §1
# [11] = biological target: GlcNAc(a1-4)Gal(b1-4)GalNAc
# Outline: as §1
# [12] = biological target: GlcNAc(a1-4)Gal(b1-4)GlcNAc
# Outline: as §1
# [13] = biological target: GlcNAc(a1-4)Gal(b1-4)GlcNAc(b1-3)Gal(b1-4)Glc
# Outline: as §1
# [14] = biological target: GlcNAc(a1-4)Gal(b1-4)GlcNAc(b1-3)Gal(b1-4)GlcNAc
# Outline: as §1
# [15] = biological target: GlcNAc(a1-4)Gal(b1-4)GlcNAc(b1-3)Gal(b1-4)GlcNAc(b1-3)Gal(b1-4)GlcNAc
# Outline: as §1
# [16] = biological target: GlcNAc(a1-4)Gal(b1-4)GlcNAc(b1-3)Gal(b1-4)[Fuc(a1-3)]GlcNAc(b1-3)Gal(b1-4)[Fuc(a1-3)]GlcNAc
# Outline: as §1
# [17] = biological target: GlcNAc(a1-6)Gal(b1-4)GlcNAc
# Outline: as §1
# [18] = biological target: GlcNAc(b1-2)Gal(b1-3)GalNAc
# Outline: as §1
# [19] = biological target: GlcNAc(b1-2)Man(a1-3)[GlcNAc(b1-2)Man(a1-6)]Man(b1-4)GlcNAc(b1-4)GlcNAc
# Outline: as §1
# [20] = biological target: GlcNAc(b1-2)Man(a1-3)[GlcNAc(b1-2)Man(a1-6)]Man(b1-4)GlcNAc(b1-4)[Fuc(a1-6)]GlcNAc
# Outline: as §1
# [21] = biological target: GlcNAc(b1-2)Man(a1-3)[GlcNAc(b1-4)][GlcNAc(b1-2)Man(a1-6)]Man(b1-4)GlcNAc(b1-4)GlcNAc
# Outline: as §1
# [22] = biological target: GlcNAc(b1-2)Man(a1-3)[GlcNAc(b1-4)][GlcNAc(b1-2)Man(a1-6)]Man(b1-4)GlcNAc(b1-4)[Fuc(a1-6)]GlcNAc
# Outline: as §1
# [23] = biological target: GlcNAc(b1-2)[GlcNAc(b1-4)]Man(a1-3)[GlcNAc(b1-2)Man(a1-6)]Man(b1-4)GlcNAc(b1-4)GlcNAc
# Outline: as §1
# [24] = biological target: GlcNAc(b1-2)[GlcNAc(b1-4)]Man(a1-3)[GlcNAc(b1-4)][GlcNAc(b1-2)Man(a1-6)]Man(b1-4)GlcNAc(b1-4)GlcNAc
# Outline: as §1
binder,measurement,setting,value
B1,glycan array binding signal (z-score),[1],-0.368
same,glycan array binding signal (z-score),[2],-0.128
same,glycan array binding signal (z-score),[3],0.165
same,glycan array binding signal (z-score),GalNAc(b1-4)GlcNAc6S,0.013
same,glycan array binding signal (z-score),GalNAc(b1-6)GalNAc,-0.208
same,glycan array binding signal (z-score),GalNAc3S(b1-4)GlcNAc,-0.265
same,glycan array binding signal (z-score),GalNAc3S(b1-4)GlcNAc3S,-0.261
same,glycan array binding signal (z-score),[4],-0.257
same,glycan array binding signal (z-score),GalNAc4S6S(b1-4)GlcNAc,-0.387
same,glycan array binding signal (z-score),GalNAc6S(b1-4)GlcNAc,-0.335
same,glycan array binding signal (z-score),Glc(a1-4)Glc,0.159
same,glycan array binding signal (z-score),[5],0.48
same,glycan array binding signal (z-score),Glc(a1-6)Glc(a1-6)Glc,0.226
same,glycan array binding signal (z-score),[6],0.15
same,glycan array binding signal (z-score),Glc(b1-4)Glc,0.492
same,glycan array binding signal (z-score),Glc(b1-6)Glc,0.062
same,glycan array binding signal (z-score),GlcA(b1-3)Gal,0.135
same,glycan array binding signal (z-score),GlcA(b1-3)GlcNAc,-0.118
same,glycan array binding signal (z-score),GlcA(b1-6)Gal,0.121
same,glycan array binding signal (z-score),[7],-0.124
same,glycan array binding signal (z-score),[8],0.014
same,glycan array binding signal (z-score),[9],-0.344
same,glycan array binding signal (z-score),[10],-0.153
same,glycan array binding signal (z-score),[11],1.26
same,glycan array binding signal (z-score),[12],0.046
same,glycan array binding signal (z-score),[13],-0.293
same,glycan array binding signal (z-score),[14],-0.179
same,glycan array binding signal (z-score),[15],-0.412
same,glycan array binding signal (z-score),[16],0.383
same,glycan array binding signal (z-score),[17],-0.149
same,glycan array binding signal (z-score),[18],-0.114
same,glycan array binding signal (z-score),[19],-0.251
same,glycan array binding signal (z-score),[20],-0.125
same,glycan array binding signal (z-score),[21],-0.221
same,glycan array binding signal (z-score),[22],-0.281
same,glycan array binding signal (z-score),[23],-0.288
same,glycan array binding signal (z-score),[24],0.216
